# Assay results from PubChem BioAssay AID488969 (Vanderbilt High Throughput Screening Facility, 2010).
# In all, about 110,000 compounds were measured (“z-score”: median about -0.1, highest 2% from about 2 on). This is one part of the list. Active and inactive are the calls of the source.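 The calls were made as follows: active = z-score in the third read window above 3 or below -3; inactive = the rest.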
# Target: Metabotropic glutamate receptor 8 (Rattus norvegicus) (UniProt P70579)
# Assay: mGluR8 Gi/Go-coupled signaling modulation – cell-based, rat, thallium flux, HTS, primary screen (AID 488969)
# Details: HEK293 rat mGluR8, GIRK (G protein-gated inwardly rectifying potassium channel) thallium flux, FluoZin2; at 10 µM; stronger effect = higher value; submaximal glutamate (EC20) added with thallium
# UniProt P70579, sequence (P70579 whole entry, looked up): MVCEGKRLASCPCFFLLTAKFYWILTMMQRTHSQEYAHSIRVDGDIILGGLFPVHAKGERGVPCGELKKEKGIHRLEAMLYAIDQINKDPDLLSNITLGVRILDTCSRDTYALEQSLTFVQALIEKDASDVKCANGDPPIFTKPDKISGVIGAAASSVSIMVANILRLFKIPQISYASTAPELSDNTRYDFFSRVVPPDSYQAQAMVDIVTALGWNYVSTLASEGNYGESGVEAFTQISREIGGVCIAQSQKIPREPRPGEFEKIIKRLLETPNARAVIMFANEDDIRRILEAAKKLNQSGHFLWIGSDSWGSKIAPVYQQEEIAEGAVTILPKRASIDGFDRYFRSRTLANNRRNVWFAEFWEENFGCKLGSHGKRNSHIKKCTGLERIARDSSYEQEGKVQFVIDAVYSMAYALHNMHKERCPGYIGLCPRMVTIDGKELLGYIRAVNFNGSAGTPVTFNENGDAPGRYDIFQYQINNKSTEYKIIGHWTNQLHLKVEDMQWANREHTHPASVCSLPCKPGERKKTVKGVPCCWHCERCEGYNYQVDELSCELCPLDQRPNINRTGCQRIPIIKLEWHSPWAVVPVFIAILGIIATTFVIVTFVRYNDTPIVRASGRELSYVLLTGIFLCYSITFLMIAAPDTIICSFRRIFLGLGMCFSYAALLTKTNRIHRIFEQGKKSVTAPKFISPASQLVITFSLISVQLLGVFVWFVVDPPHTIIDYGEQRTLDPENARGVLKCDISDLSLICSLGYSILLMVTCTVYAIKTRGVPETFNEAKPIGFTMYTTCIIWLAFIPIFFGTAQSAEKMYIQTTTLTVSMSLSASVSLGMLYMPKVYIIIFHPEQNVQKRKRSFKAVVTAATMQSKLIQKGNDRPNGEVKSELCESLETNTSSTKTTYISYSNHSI
row,SMILES,z-score
1,CC(N1CCOC1=O)S(=O)(=O)c1ccccc1 (configuration not stated),0.123
2,CCOc1ccc(Cn2c(C)nc([N+](=O)[O-])c2SCC(O)CCl)cc1[N+](=O)[O-] (configuration not stated),-0.132
3,Cc1cccc(C)c1NC(=O)COc1ccc2c(C)c(Cc3ccccc3)c(=O)oc2c1,-0.696
4,Cc1ccc(CNc2nc3ccccc3n3cnnc23)cc1,0.49
5,CCOC(=O)N1CCC(n2c(SCC(=O)Nc3ccccc3OC)nc3ccccc3c2=O)CC1,1.34
6,CCCCNC(=S)N(C)/N=C/c1ccccc1C(=O)O,-0.276
7,CN(C1CCCCC1)S(=O)(=O)c1ccc2c(c1)c(=O)c(C(=O)NCCCN1CCCC1)cn2C,0.269
8,CS(=O)(=O)c1ccc(C(=O)NCC2(N3CCCCC3)CCCCC2)cc1,0.176
9,C/C(=N\Nc1ccc(C(F)(F)F)cn1)c1ccc(S(=O)(=O)NCc2ccco2)cc1,0.277
10,CN(C)S(=O)(=O)c1ccc(C(=O)NCCOc2ccccc2)cc1,-0.0108
11,CC1(C)Cc2c(c(N3CCOCC3)nc3sc(-c4ccc(C(=O)O)o4)c(N)c23)CO1,-0.251
12,CCc1cc2c(=O)c(-c3nc4ccccc4[nH]3)coc2c(CN2CCC(C)CC2)c1O,0.303
13,COC(=O)C1=C(C(=O)c2ccccc2)C(c2cccs2)n2nnnc2N1 (configuration not stated),-0.165
14,O=S(=O)(/N=C(/Nc1cc(N2CCOCC2)ncn1)c1ccccc1)c1ccccc1,0.0637
15,CC(=O)c1ccc(NC(=O)CSc2nnc(Cc3cccn3C)n2-c2ccc(F)cc2)cc1,-0.575
16,Cc1ccc(NC(=O)COC(=O)c2cccc3c(=O)c(C)c(-c4ccccc4)oc23)cc1,-0.395
17,Cc1c(=O)n(OCc2c(F)cccc2F)c2ccccc2[n+]1[O-],0.393
18,O=S(=O)(Nc1ccc2c(c1)OCCO2)c1ccc(Br)s1,-0.108
19,Cn1nnnc1SCC(=O)NC(=O)Cc1ccccc1,-0.477
20,CC(NS(=O)(=O)c1ccc(F)cc1)C(c1cccs1)N1CCN(C)CC1 (configuration not stated),0.0443
21,Cc1ccc(NC(=O)CCC(=O)c2ccc(F)cc2)cc1Cl,-0.444
22,CCOC(=O)Cn1c(=O)n(Cc2ccco2)c(=O)c2ccc(C(=O)NC3CCCC3)cc21,-0.443
23,N/C(=N\OS(=O)(=O)c1ccc2ccccc2c1)c1ccncc1,-0.234

row,SMILES,z-score
1,CC(C)CCOC(=O)C1[C@H]2C(=O)N(Cc3cccs3)C[C@]23C=C[C@H]1O3 (some centres not stated),0.173
2,C(=N\Nc1nn[nH]n1)/c1ccccc1,0.055
3,Cc1nn2c(NCCCN(C)C)c3c(nc2c1-c1ccccc1)CCC3,active: 3.36
4,CCCOc1ccc(C(=O)CCC(=O)OCC(=O)N2CC(=O)Nc3ccccc32)cc1,-0.534
5,O=C(Nc1cccc(Cl)c1)Nc1nnc(-c2ccccc2)o1,1.11
6,Cc1nnc2ccc(N3CCN(C(=O)c4ccccc4)CC3)nn12,0.0411
7,O=C(c1nc2ncccn2n1)N1CCc2ccccc2C1,-0.128
8,CN1CCN(S(=O)(=O)c2cccc(C(=O)N(c3ccccn3)C3CCCCC3)c2)CC1,0.694
9,O=C(OC(C(=O)NC1CCCC1)c1ccccn1)c1cccs1 (configuration not stated),0.998
10,CCOC(=O)c1cnc2ccc(OCC)cc2c1NCc1ccccc1,0.483
11,Cc1ccc(C)c(Cn2cnc3c(cnn3C(C)(C)C)c2=O)c1,-1.53
12,CCN=c1scc(-c2ccco2)n1/N=C/c1ccc(O)cc1,active: 6.24
13,CC1(c2ccc3c(c2)OCO3)NC(=O)N(CC(=O)NCCC2=CCCCC2)C1=O (configuration not stated),1.97
14,CCCCN(CC)CCCNC(=O)CS(=O)(=O)Cc1nc(-c2cccc(OC)c2)oc1C,active: 3.63
15,CCOc1cc(N2CCOCC2)c(OCC)cc1NC(=O)CN1CCc2ccccc2C1,-0.463
16,CCOC(=O)c1sc(NC(=O)/C=C/c2cnn(C)c2C)c(C(=O)OCC)c1C,-0.293
17,COc1ccc(Cl)cc1N1C(=O)C2CCCN2C1c1ccccc1F (configuration not stated),-0.409
18,COc1cc(OC)c(NC(=O)c2cccc(F)c2)cc1Cl,-0.155
19,O=C(COC(=O)c1cccc(Cl)c1Cl)NCCN1C(=O)CSC1=O,-0.642
20,Cc1cc(C)n(CC(O)COc2ccccc2C(=O)Nc2ccccc2)n1 (configuration not stated),-0.873
21,Cc1cc(NC(=O)C2C3C(=O)N(CC4CCCO4)C(C(=O)NCc4ccccc4)C34C=CC2(C)O4)no1 (configuration not stated),0.0734
22,Cc1nnc(C)n1/N=C/c1ccccn1,-0.443
23,CCOc1ccc(NC(=O)C(c2ccccn2)N(C(=O)CCl)c2ccc(OCC)cc2)cc1 (configuration not stated),-0.0387

row,SMILES,z-score
1,O=c1cc(-c2ccccc2)n(S(=O)(=O)c2ccc3ccccc3c2)o1,-0.169
2,CCOC(=O)c1ccccc1NC(=O)Cn1cnc2c(nnn2-c2ccc(C)cc2)c1=O,-0.607
3,Cc1ccccc1NC(NC(=O)c1cccnc1)C(Cl)(Cl)Cl (configuration not stated),-0.513
4,O=C(CSc1nnc(CCc2nc3ccccc3[nH]2)n1-c1ccccc1)NCc1ccco1,-1.56
5,COc1ccc(C(=O)Nc2c(N)nc(SCC(=O)N3CCC(C)CC3)[nH]c2=O)cc1OC,-0.0942
6,O=C(NCC(c1cccnc1)N1CCOCC1)c1ccc2c(c1)OCO2 (configuration not stated),-0.152
7,O=S(=O)(Nc1ncnc2sc3c(c12)CCC3)c1ccc(Cl)s1,0.439
8,CC(N=c1ccccn1C(=O)Nc1cccc(C(F)(F)F)c1)c1ccco1 (configuration not stated),1.15
9,c1cncc(-c2nnc3sc(-c4ccco4)nn23)c1,0.394
10,COc1ccc(N2C(=O)C3CC=C(Cl)CC3C2=O)cc1 (configuration not stated),-1.14
11,O=[N+]([O-])c1cc2c(cc1C=Nc1ccccc1)OCO2,-0.0132
12,CCc1ccc(-c2nc(NC(=O)c3ccc(OCC(=O)Nc4ccc(F)cc4)c(OC)c3)sc2C)cc1,0.304
13,CSc1ccc(S(=O)(=O)N2CCCC2)cc1,-0.542
14,CC(C)(C)C1CCc2[nH]c3ccccc3c(=O)c2C1 (configuration not stated),-0.984
15,CCOc1ccc(NC(=S)NC(=O)/C=C/c2ccc(OC)cc2)c([N+](=O)[O-])c1,-0.516
16,COc1ccccc1/C=N/NC(=O)CC(=O)Nc1ccc(Cl)c(Cl)c1,0.199
17,Cc1ccc2c(CC(=O)OC3CCOC3=O)coc2c1 (configuration not stated),-0.361
18,COc1ccc(S(=O)(=O)N2CCOCC2)cc1NC(=O)Cc1c(Cl)cccc1Cl,-0.238
19,O=C(NCCCCc1ccccc1)C12CN(Cc3ccccc3)CC1C(c1cccc([N+](=O)[O-])c1)=NO2 (configuration not stated),-0.04
20,CCOC(=O)CSc1nc(C)cc(=O)[nH]1,-0.356
21,Cc1c(C(=O)c2ccc(Cl)c(Cl)c2)cnc2cc3c(cc12)OCO3,0.71
